According to the supplement of paper PMC3334620:
The full ranking holds about 33,000 sequences; the median of “E-score (-0.5 to 0.5)” is about -0.035, and the highest 2% start at about 0.35. Some of the results follow.

Target: T1, Pdr3 (UniProt P33200)
T1 sequence: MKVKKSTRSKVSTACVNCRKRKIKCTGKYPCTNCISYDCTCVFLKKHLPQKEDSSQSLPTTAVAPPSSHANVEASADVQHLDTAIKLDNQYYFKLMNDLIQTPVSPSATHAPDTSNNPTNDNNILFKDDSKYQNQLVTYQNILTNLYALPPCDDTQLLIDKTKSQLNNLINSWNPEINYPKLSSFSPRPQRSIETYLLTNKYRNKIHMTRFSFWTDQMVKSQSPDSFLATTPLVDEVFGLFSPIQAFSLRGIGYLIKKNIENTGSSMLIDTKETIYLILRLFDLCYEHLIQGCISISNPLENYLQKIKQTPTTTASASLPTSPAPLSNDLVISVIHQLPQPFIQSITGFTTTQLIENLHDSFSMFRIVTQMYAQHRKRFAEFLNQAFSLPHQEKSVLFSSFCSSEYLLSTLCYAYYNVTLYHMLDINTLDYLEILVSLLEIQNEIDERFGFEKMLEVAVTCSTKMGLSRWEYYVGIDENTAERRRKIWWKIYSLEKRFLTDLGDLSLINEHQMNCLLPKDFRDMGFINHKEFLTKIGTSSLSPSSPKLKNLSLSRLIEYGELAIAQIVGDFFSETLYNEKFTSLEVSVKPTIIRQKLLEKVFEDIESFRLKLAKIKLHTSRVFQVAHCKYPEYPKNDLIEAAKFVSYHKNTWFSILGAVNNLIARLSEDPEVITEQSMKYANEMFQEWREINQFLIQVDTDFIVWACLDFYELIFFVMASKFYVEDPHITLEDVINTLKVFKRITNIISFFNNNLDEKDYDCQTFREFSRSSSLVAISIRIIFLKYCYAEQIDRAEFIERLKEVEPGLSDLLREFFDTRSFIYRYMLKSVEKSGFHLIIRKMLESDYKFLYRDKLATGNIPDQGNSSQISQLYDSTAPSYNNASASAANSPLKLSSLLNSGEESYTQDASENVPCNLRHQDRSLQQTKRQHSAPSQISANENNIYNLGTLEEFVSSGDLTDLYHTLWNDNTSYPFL
Experiment: PBM E-score (8-mer binding enrichment) (E-score (-0.5 to 0.5)); higher = stronger / more preferred TF binding; most listed sequences are background and not binding sites
Settings: protein concentration: 200 nM; construct: GST-full length
Summary of the method: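 PURExpress in vitro transcription/translation supplied GST-tagged yeast transcription factors, either full-length or DNA-binding domain. Applied at about 100-200 nM to universal all-10-mer Agilent arrays double-stranded by primer extension, the bound protein was detected with fluorescent anti-GST. E-scores, modified Wilcoxon-Mann-Whitney statistics, were given by the Universal PBM Analysis Suite to ungapped eight-base words pooled with their reverse complements after masliner normalisation.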

| Sequence | PBM E-score |
| --- | --- |
| TACCTATA | -0.293 |
| AAGTAAAA | -0.119 |
| GGTTTCGA | 0.134 |
| ATGGGGAG | -0.155 |
| TATCTAAA | 0.0842 |
| AAAAAGCC | 0.192 |
| AGATTGTA | -0.156 |
| GATCGCGA | 0.183 |
| CTGTACAA | -0.1 |
| TACGGAGA | 0.178 |
| TGACGAAA | -0.112 |
| CCGGTAAG | 0.294 |
| GCGCTCTA | -0.0312 |
| TAACGCGA | -0.0326 |
| AGTAATAG | -0.121 |
| CGATGGCC | -0.0457 |
| CTCGACTA | -0.113 |
| AGGGGCCA | -0.103 |
| CGTAAGCC | -0.0414 |
| GTAGGTGA | -0.263 |
| TCAGATGA | -0.118 |
| ATCTGTAG | -0.15 |

| Sequence | PBM E-score |
| --- | --- |
| TACACGGA | 0.3 |
| GCCACAGC | -0.0837 |
| AACTCAAA | -0.0246 |
| AAGCGACG | 0.0395 |
| CAGGGCAC | -0.00368 |
| GCAGTACC | 0.0138 |
| CAAGACCG | -0.0218 |
| ACTGCCTC | -0.00327 |
| CATGAGAC | -0.0869 |
| CTCTGAAG | -0.23 |
| ATCATCCA | -0.0404 |
| TGGCCTAA | -0.223 |
| AACCGTCT | -0.137 |
| TGCATCAA | 0.0784 |
| ATATAAAG | -0.136 |
| GGCGCATA | 0.0934 |
| CCCACTAG | -0.128 |
| GTGAGCTA | -0.138 |
| CACATCGC | -0.0103 |
| AAAACGTC | -0.0442 |
| AAAGCCAC | -0.0196 |
| AGGCCCGC | 0.151 |

| Sequence | PBM E-score |
| --- | --- |
| GTCAAAAC | 0.0242 |
| GATAGTAA | 0.0485 |
| TATGTACA | -0.2 |
| AACCATTC | 0.00272 |
| CAATGCCA | -0.0947 |
| CGTTCTTA | 0.159 |
| ACATCGCC | 0.111 |
| CGCCATAC | 0.0216 |
| AGTTTTAT | 0.026 |
| CCGAAGTA | 0.256 |
| TAGAAGAA | -0.144 |
| AATCAACT | 0.0921 |
| CAAATAAC | 0.0456 |
| TGACTGCA | -0.218 |
| CTGGAGAC | -0.137 |
| AAAGGACG | -0.154 |
| AAAAATTG | -0.105 |
| CGACATAG | -0.159 |
| TGGCATAA | -0.035 |
| CGTACGCA | -0.17 |
| TCCTGCAA | -0.12 |
| GGGGCGAC | -0.00808 |

| Sequence | PBM E-score |
| --- | --- |
| AGCGAGTA | 0.226 |
| CTGAGACC | -0.0954 |
| GATCTCAA | 0.144 |
| ACTGGCAC | -0.0714 |
| AGTGCCAA | -0.167 |
| GGATGGCC | -0.00764 |
| TATAAATA | 0.208 |
| GGGTTTAC | -0.00165 |
| ATACCTAA | -0.0418 |
| ATACGCCG | 0.155 |
| CATTAGAC | -0.178 |
| GCTCATGA | -0.106 |
| GAGGGGTA | 0.00223 |
| AGAGCGAA | -0.0563 |
| CCCCGTGA | 0.0755 |
| CGCAGGTC | -0.0398 |
| GAGAATAA | -0.083 |
| AAGAAATC | -0.104 |
| AAAGCACA | -0.121 |
| GGTTACAA | -0.00384 |
